The other results are listed elsewhere or left out. Single values are uncertain, as repeats are few or missing.
What follows are molecules tested on SkMel5 (assay: cell count relative to DMSO control; melanoma cells; higher = more viable cells). Settings: library dose: low library concentration; 72 h.
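Also: cell number obtained by counting DAPI-stained nuclei in high-throughput microscope images with image analysis software, screen run in 1,536-well plates.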

Row | Compound | cell count [%]
1 | Cc1cn(-c2cc(NC(=O)c3ccc(C)c(Nc4nccc(-c5cccnc5)n4)c3)cc(C(F)(F)F)c2)cn1 [nilotinib] + Cn1cncc1[C@@](N)(c1ccc(Cl)cc1)c1ccc2c(c1)c(-c1cccc(Cl)c1)cc(=O)n2C [tipifarnib] (first compound 0.2 µM, partner dose 0.01 µM) | 104
2 | CC(C)C[C@H](NC(=O)[C@H](Cc1ccccc1)NC(=O)c1cnccn1)B(O)O [Bortezomib] + CC(C)CCN1c2nc(Nc3cc(F)c(O)c(F)c3)ncc2N(C)C(=O)C1C [BID1870] (first compound 0.001 µM, partner dose 0.2 µM) | 94.7
3 | Cc1cn(-c2cc(NC(=O)c3ccc(C)c(Nc4nccc(-c5cccnc5)n4)c3)cc(C(F)(F)F)c2)cn1 [nilotinib] + O=C(CCCCCCC(=O)Nc1ccccc1)NO [vorinostat] (first compound 0.2 µM, partner dose 0.08 µM) | 91.5
4 | Cn1c(=O)n(-c2ccc(C(C)(C)C#N)cc2)c2c3cc(-c4cnc5ccccc5c4)ccc3ncc21 + O=C1NC(=O)/C(=C/c2ccc(-c3ccc(F)cc3O)o2)S1 [AS252424] (first compound 0.004 µM, partner dose 1 µM) | 95.5
5 | CC(C)C[C@H](NC(=O)[C@H](Cc1ccccc1)NC(=O)c1cnccn1)B(O)O [Bortezomib] + COc1ccc(-c2ccc3c(N4CCOCC4)nc(N4C[C@@H](C)O[C@@H](C)C4)nc3n2)cc1CO [KU0063794] (first compound 0.001 µM, partner dose 0.02 µM) | 87.9
6 | Cc1cc(Nc2cc(N3CCN(C)CC3)nc(/C=C/c3ccccc3)n2)n[nH]1 + CC(C)(C)c1cnc(CSc2cnc(NC(=O)C3CCNCC3)s2)o1 [SNS-032] (first compound 0.04 µM, partner dose 0.01 µM) | 106
7 | Cc1cc(Nc2cc(N3CCN(C)CC3)nc(/C=C/c3ccccc3)n2)n[nH]1 + O=C(O)c1ccc(-c2c[nH]c3ncc(-c4ccccc4)cc23)cc1C1CCCC1 [GSK650394] (first compound 0.04 µM, partner dose 0.16 µM) | 97.5
8 | Cc1cn(-c2cc(NC(=O)c3ccc(C)c(Nc4nccc(-c5cccnc5)n4)c3)cc(C(F)(F)F)c2)cn1 [nilotinib] + COC(=O)c1sccc1S(=O)(=O)Nc1ccc(Nc2ccccc2)cc1OC [GSK0660] (first compound 0.2 µM, partner dose 1 µM) | 94.7
9 | Cn1c(=O)n(-c2ccc(C(C)(C)C#N)cc2)c2c3cc(-c4cnc5ccccc5c4)ccc3ncc21 + CO[C@@H]1[C@H](N(C)C(=O)c2ccccc2)C[C@H]2O[C@]1(C)n1c3ccccc3c3c4c(c5c6ccccc6n2c5c31)C(=O)NC4 [Midostaurin] (first compound 0.004 µM, partner dose 0.08 µM) | 102
10 | Cc1cn(-c2cc(NC(=O)c3ccc(C)c(Nc4nccc(-c5cccnc5)n4)c3)cc(C(F)(F)F)c2)cn1 [nilotinib] + NC(=O)Nc1cc(-c2cccc(F)c2)sc1C(=O)N[C@H]1CCCNC1 [AZD7762] (first compound 0.2 µM, partner dose 0.02 µM) | 99.5
11 | COc1ccc(C2=N[C@@H](c3ccc(Cl)cc3)[C@@H](c3ccc(Cl)cc3)N2C(=O)N2CCNC(=O)C2)c(OC(C)C)c1 [Nutlin-3] + O=c1cc(-c2cccc3c2Sc2ccccc2S3)oc(N2CCOCC2)c1 [KU55933] (first compound 0.1 µM, partner dose 1 µM) | 95.5
12 | Cc1cn(-c2cc(NC(=O)c3ccc(C)c(Nc4nccc(-c5cccnc5)n4)c3)cc(C(F)(F)F)c2)cn1 [nilotinib] + O=S(=O)(c1ccccc1)N(CC(F)(F)F)c1ccc(C(O)(C(F)(F)F)C(F)(F)F)cc1 [T0901317] (first compound 0.2 µM, partner dose 1.4 µM) | 90.7
13 | Cc1cc(Nc2cc(N3CCN(C)CC3)nc(/C=C/c3ccccc3)n2)n[nH]1 + Cc1ccc(NC(=O)c2cccc(N(C)C)c2)cc1NC(=O)c1ccc(O)cc1 [ZM336372] (first compound 0.04 µM, partner dose 2 µM) | 76.3
14 | Cn1c(=O)n(-c2ccc(C(C)(C)C#N)cc2)c2c3cc(-c4cnc5ccccc5c4)ccc3ncc21 + c1cc(-c2cnn3cc(-c4ccc(OCCN5CCCCC5)cc4)cnc23)ccn1 [Dorsomorphin] (first compound 0.004 µM, partner dose 0.4 µM) | 101
15 | COc1ccc(C2=N[C@@H](c3ccc(Cl)cc3)[C@@H](c3ccc(Cl)cc3)N2C(=O)N2CCNC(=O)C2)c(OC(C)C)c1 [Nutlin-3] + Oc1nc(-c2ccc(C(F)(F)F)cc2)nc2c1CSCC2 [XAV939] (first compound 0.1 µM, partner dose 2 µM) | 101
16 | Cc1cc(Nc2cc(N3CCN(C)CC3)nc(/C=C/c3ccccc3)n2)n[nH]1 + CCN(CC)CCCCNc1ncc2cc(-c3cc(OC)cc(OC)c3)c(NC(=O)NC(C)(C)C)nc2n1 [PD173074] (first compound 0.04 µM, partner dose 0.1 µM) | 97.5
17 | Cc1cn(-c2cc(NC(=O)c3ccc(C)c(Nc4nccc(-c5cccnc5)n4)c3)cc(C(F)(F)F)c2)cn1 [nilotinib] + NCC(=O)Nc1ccc(-n2nc(C(F)(F)F)cc2-c2ccc3c(ccc4ccccc43)c2)cc1 [OSU03012] (first compound 0.2 µM, partner dose 1 µM) | 102
18 | Cc1cn(-c2cc(NC(=O)c3ccc(C)c(Nc4nccc(-c5cccnc5)n4)c3)cc(C(F)(F)F)c2)cn1 [nilotinib] + CO[C@@H]1[C@H](N(C)C(=O)c2ccccc2)C[C@H]2O[C@]1(C)n1c3ccccc3c3c4c(c5c6ccccc6n2c5c31)C(=O)NC4 [Midostaurin] (first compound 0.2 µM, partner dose 0.08 µM) | 88.9
19 | Cc1cc(Nc2cc(N3CCN(C)CC3)nc(/C=C/c3ccccc3)n2)n[nH]1 + COC(=O)c1sccc1S(=O)(=O)Nc1ccc(Nc2ccccc2)cc1OC [GSK0660] (first compound 0.04 µM, partner dose 1 µM) | 113
20 | COc1ccc(C2=N[C@@H](c3ccc(Cl)cc3)[C@@H](c3ccc(Cl)cc3)N2C(=O)N2CCNC(=O)C2)c(OC(C)C)c1 [Nutlin-3] + CC(C)CCN1c2nc(Nc3cc(F)c(O)c(F)c3)ncc2N(C)C(=O)C1C [BID1870] (first compound 0.1 µM, partner dose 0.2 µM) | 107
21 | COc1ccc(C2=N[C@@H](c3ccc(Cl)cc3)[C@@H](c3ccc(Cl)cc3)N2C(=O)N2CCNC(=O)C2)c(OC(C)C)c1 [Nutlin-3] + COc1ccc2c(c1)CCC1C2CCC2(C)C(NCCCCCCN3C(=O)C=CC3=O)CCC12 [U73122] (first compound 0.1 µM, partner dose 0.4 µM) | 89.1
22 | Cc1cc(Nc2cc(N3CCN(C)CC3)nc(/C=C/c3ccccc3)n2)n[nH]1 + Oc1nc(-c2ccc(C(F)(F)F)cc2)nc2c1CSCC2 [XAV939] (first compound 0.04 µM, partner dose 2 µM) | 83.9
23 | COc1ccc(C2=N[C@@H](c3ccc(Cl)cc3)[C@@H](c3ccc(Cl)cc3)N2C(=O)N2CCNC(=O)C2)c(OC(C)C)c1 [Nutlin-3] + CCc1ccc(CCOc2ccc(CC3SC(=O)NC3=O)cc2)nc1 [pioglitazone] (first compound 0.1 µM, partner dose 2 µM) | 84.2
24 | COc1ccc(C2=N[C@@H](c3ccc(Cl)cc3)[C@@H](c3ccc(Cl)cc3)N2C(=O)N2CCNC(=O)C2)c(OC(C)C)c1 [Nutlin-3] + O=C(CCCCCCC(=O)Nc1ccccc1)NO [vorinostat] (first compound 0.1 µM, partner dose 0.08 µM) | 99.3
25 | Cn1c(=O)n(-c2ccc(C(C)(C)C#N)cc2)c2c3cc(-c4cnc5ccccc5c4)ccc3ncc21 + Cn1cncc1[C@@](N)(c1ccc(Cl)cc1)c1ccc2c(c1)c(-c1cccc(Cl)c1)cc(=O)n2C [tipifarnib] (first compound 0.004 µM, partner dose 0.01 µM) | 109

From the supplement of paper PMC4604168 (melanoma cell lines)
